The other results are listed elsewhere or left out.
T1: UNK ZnF1-6 (called full-length) (human, UniProt Q9C0B0 30-357)
T1 sequence: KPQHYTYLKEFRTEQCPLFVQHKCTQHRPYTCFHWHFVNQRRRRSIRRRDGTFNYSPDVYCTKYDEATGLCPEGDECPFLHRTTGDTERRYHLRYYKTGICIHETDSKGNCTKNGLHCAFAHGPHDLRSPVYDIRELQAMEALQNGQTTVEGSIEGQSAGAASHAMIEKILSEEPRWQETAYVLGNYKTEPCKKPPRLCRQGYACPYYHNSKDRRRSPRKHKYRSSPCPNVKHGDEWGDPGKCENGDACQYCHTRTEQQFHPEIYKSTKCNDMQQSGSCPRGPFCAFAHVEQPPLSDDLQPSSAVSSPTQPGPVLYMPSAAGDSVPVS

B1: ENSG00000070961:be:win_2451|CDS|ENSG00000070961|bound_else_gene|NA|bound_elsewhere_windowed (ssRNA)
RNA: GGGAGUUCUACAGUCCGACGAUCUGGAACUGAUGUAGCUAAAGAAGCAUCCGAUAUUAUUCUCACAGAUGACAACUUUACAAGCAUUGUUAAAGCAGUUAUGUGGGGACGAAAUGUCUAUGACAGCAUCUCAAAAUUCCUUCACAACAGAGGAUUGAGCAUCA
B2: ENSG00000136451:be:win_3701|3pUTR|ENSG00000136451|bound_else_gene|NA|bound_elsewhere_windowed (ssRNA)
RNA: GGGAGUUCUACAGUCCGACGAUCUCUCUGGUGGGCUGGCAGUCAUAAUUCACAAUUCAGACAGCCCAGGCUUCCUCCACAGUGGUCCAAGGAGCAGUCCUCAGUGGGGGCAGGUGUGGGCCCUACCCCUAAGCUAGAAUGUGGCAACAGAGGAUUGAGCAUCA
B3: chr22:38866210:38866312:-|CDS|ENSG00000183741|unk|FALSE|bound_elsewhere (ssRNA)
RNA: GGGAGUUCUACAGUCCGACGAUCGACGGUCACAAUCAAGGAAUUCUGCAACCCUGAGGAUUUCGAGAAGGUGGCUGCUGGGGUAGCAGGCGCCGCUGGGGGCGGUGGCAGCAUUGGGGCGAGCAAGUGAGGGGGCUCCACCAACAACAGAGGAUUGAGCAUCA
B4: ENSG00000198589:be:win_701|CDS|ENSG00000198589|bound_else_gene|NA|bound_elsewhere_windowed (ssRNA)
RNA: GGGAGUUCUACAGUCCGACGAUCAUACAUGGCUUAGAAUGGAUCCUGUAAAUAACAUCAAUGUAGAUAAGGAUAAACCAUAUUUGUAUUGUUUCAGAACCAGCAAAGGUCUUGGCUAUUCUGCUCAUUUUGUUGGAGGCUGUUCAACAGAGGAUUGAGCAUCA
B5: chr11:92891788:92891889:+|3pUTR|ENSG00000165323|msi1|FALSE|bound_elsewhere (ssRNA)
RNA: GGGAGUUCUACAGUCCGACGAUCAUGAGGCUUUUUGGGUUCCAUUUGGUGGGUGGGGGAGGAAGUUAAAGUUGUUUGAACAUUAGAAAGAAUGUGAUUAUCUGGUUGGUUUUGUGUUUUCUGGUAAAUAUUCCAGUUGGUAAACAACAGAGGAUUGAGCAUCA
B6: chr2:11642538:11642650:+|3pUTR|ENSG00000196208|unk|total|mutant (ssRNA)
RNA: GGGAGUUCUACAGUCCGACGAUCCGAAGAGUUGAUGUCAAUCUUUUUUUCCUAAGAAAAAAAGUCCGCGAGUAUUAAAUAUUCCGAUCAAUGUUUAUAAAAUGAUUACUUUGUAUAUCUCAUUAUUCCUAUUUUGGAAUAAAACAACAGAGGAUUGAGCAUCA
B7: chr11:134247321:134247422:+|3pUTR|ENSG00000151502|unk|FALSE|unique (ssRNA)
RNA: GGGAGUUCUACAGUCCGACGAUCCCUUUUCAGAGCAUGAGGUCAGGCUCUGUAUCCCUCCUUUUCCUAGCUGAUAUUCUAACUAGAAGCAUUUGUCAAUUCCUUUGCCUCCCAACUGACAACACACGUUCAUUUUCCAACCUUCAACAGAGGAUUGAGCAUCA
B8: ENSG00000070961:be:win_6351|3pUTR|ENSG00000070961|bound_else_gene|NA|bound_elsewhere_windowed (ssRNA)
RNA: GGGAGUUCUACAGUCCGACGAUCCAGAUGUCAGUUUUGAACCAAGAAUUGGUGAUUUGUUUAUAAGAAAAAAACUGGCUUCAUUUCUGUGAAAUUGCUCUUUGAAAAUUUCUUUUUACACGUGUAAGCCAACUGAGAUACCGUCAACAGAGGAUUGAGCAUCA
B9: chr5:172042892:172042993:-|3pUTR|ENSG00000072786|msi1|FALSE|unique (ssRNA)
RNA: GGGAGUUCUACAGUCCGACGAUCGAUUCUCCCGCUUCAACCUUGAGUAGCUGGGACGACAGAUACAUGCUACUGCACCCAGCUAGGUUAAGGUUCUGUAUACUCUGUCUUUCUAAAGCAAUUCCCUGGAAAUUUUCUCAACAUCAACAGAGGAUUGAGCAUCA
B10: ENSG00000070961:be:win_2051|CDS|ENSG00000070961|bound_else_gene|NA|bound_elsewhere_windowed (ssRNA)
RNA: GGGAGUUCUACAGUCCGACGAUCAUCCUGUGAGACCUGAGGUGCCAGAUGCAAUUAAAAAGUGUCAGAGGGCUGGAAUUACUGUGCGGAUGGUCACUGGUGAUAAUAUUAAUACUGCUCGGGCCAUUGCUACCAAAUGUGGUACAACAGAGGAUUGAGCAUCA
B11: chr20:1470740:1471132:-|three_prime_utr|ENSG00000196209|control|control|control (ssRNA)
RNA: GGGAGUUCUACAGUCCGACGAUCUCAGUUCUUGUCUGCUUGGAAGAAAGAUUUCAGCCAAGAGACACACAGCAAAGGUGAAGUAGCAGAGUUUAUUGAAGAAAGAUAAAGUACGUUCCUAGAAAGGAGUGGGCUGACCUGGCUCAACAGAGGAUUGAGCAUCA
B12: ENSG00000052841:stop:overlap|stop_codon|ENSG00000052841|stop_codon|NA|stop_codon (ssRNA)
RNA: GGGAGUUCUACAGUCCGACGAUCAGAACCGAAUCCAGACCAUCCAGUGUCACUUAAUGCUGAAGAAGGGACGGCGCUCUCCUUAGUGCACUUCUUCCUUCUCUCUUUCUCUUUACUCAUGCUCUAAAAAAAAAGAAUAAGAAACAACAGAGGAUUGAGCAUCA
B13: chr3:168010103:168010202:-|3pUTR|ENSG00000173905|msi1_unk|FALSE|overlapping (ssRNA)
RNA: GGGAGUUCUACAGUCCGACGAUCGCUCAAACAUAAAUCUGCCUACUGAACUCUAGGAUAUUUAAUUACAAAAAUUAAGAACUUAGACUUUUUUAAAACUUUUGUAUUAGAAAUGCGCAUACAUUUAUAUGAAUAUAUUUUGAUCAACAGAGGAUUGAGCAUCA
B14: chr15:69268886:69268987:+|CDS|ENSG00000138604|unk|FALSE|bound_elsewhere (ssRNA)
RNA: GGGAGUUCUACAGUCCGACGAUCGGAGUUAAAGCUGUGUUUAUGAAUAAACAUGACUGGUAUGAAGAAUAUCCAACCACACCUAGCUCUUUUGUUUUAAAUGGCUUUAUGUAUUCUUUAAUUGGGCUGUAUGACUUAAAAGAACAACAGAGGAUUGAGCAUCA

The binders below were run against T1, UNK ZnF1-6 (called full-length) (assay: nsRBNS (natural sequence RNA bind-n-seq); RBNS binding buffer (assumed for nsRBNS): 25 mM Tris pH 7.5, 150 mM KCl, 3 mM MgCl2, 0.01% Triton X-100, 500 ug/ml BSA, 20 U/ml SUPERase-In, 4 C; UNK is unkempt and MSI1 is Musashi-1; names of the RNAs are library labels; protein concentration not given here; high values mean tight binding).
B1 gave a binding signal of 0.216 enrichment R.
B2 showed a binding signal of 0.776 enrichment R.
Binder B3 has a binding signal of 0.91 enrichment R.
For B4, the binding signal was 0.482 enrichment R.
B5 gave a binding signal of 1.22 enrichment R.
With B6 the binding signal was 0.544 enrichment R.
With B7 the binding signal was 2.72 enrichment R.
Work on B8 yielded a binding signal of 0.404 enrichment R.
B9 gave a binding signal of 0.494 enrichment R.
Binder B10 has a binding signal of 0.647 enrichment R.
Work on B11 yielded a binding signal of 0.518 enrichment R.
B12 was tested, and the binding signal was 0.995 enrichment R.
Binder B13 has a binding signal of 12.6 enrichment R.
In the case of B14, the binding signal is reported as 0.615 enrichment R.
